± gives the standard deviation of the averaged measurements. In all, about 3,600 compounds were measured (“viability index relative to DMSO control”: median about 0.81, lowest 2% from about 0.13 on). Some of the results follow.
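Also: 384-well serum-free SaLSSA: MitoTracker Red CMXRos staining with saponin lysis, high-content imaging, treated-well particle count divided by plate-mean count of DMSO wells.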

This assay concerns Plasmodium falciparum NF54 stage V gametocytes. In words: viability index relative to DMSO control (fraction); higher = less gametocyte killing. The settings on record: 1.25 µM, incubation time: 72 h.
`NC12CC3CC(C1)CC(SSC14CC5CC(CC(N)(C5)C1)C4)(C3)C2`: the viability index came to 0.11. To `Cc1n(N)c2ccccc2[n+]1CC(=O)c1ccccc1` belongs 0.949; to `COCCNC(=O)[C@@H]1C[C@@H](NCCC2=C(C)CCCC2(C)C)CN1C(C)C`, 1.13.

With `Cc1c2c(n3c(nc4ccccc43)c1C#N)N(CCN(C)C)CC2`, the viability index stood at 0.674. The molecule `COc1ccccc1NC1=C(N2CCCCC2)C(=O)c2ccccc2C1=O` returned a viability index of 0.197.

With `CCOC(=O)c1c(-c2ccccc2)oc2c1C(=O)c1ccccc1C2=O`, the viability index is 0.461. To `CN(C)CCNC(=S)Nc1cccc(C(F)(F)F)c1` belongs 0.841. Consider `CCCc1c(C)nc2ccc(Br)cc2c1O`, for which the viability index amounted to 0.569. Then `COc1ccc2c(Cl)c(C(=O)Nc3cc(C)on3)sc2c1Cl`, with 0.845; and `COC(=O)[C@@H]1C[C@@H](NC(=O)c2ccc(OC)cc2OC)CN1Cc1ccc(C)cc1C`, with 0.643; and `CCOC(=O)c1c(NC(=O)c2ccc([N+](=O)[O-])cc2[N+](=O)[O-])sc2c1CCCC2`, with 0.815. To `COC(=O)c1ccc(C=NNc2cc(C)nc3ccc(OC)cc23)cc1` belongs 0.0573; to `O=[N+]([O-])c1ccc(C=NNc2nc3ccccc3[nH]2)cc1`, 1.14.

The molecule `O=C1N=C(N2CCOCC2)S/C1=C/c1cccc2ccccc12` displayed a viability index of 0.827.

`CCc1ccc2[nH]c(=O)c(CN(CCN(CC)CC)C(=S)NCCCN(CC)CC)cc2c1` registered a viability index of 1.18.

For `CN(C)C(=O)C1C2NC(=S)N(c3ccccc3)C1(C)Oc1ccccc12` (stereo unspecified), the viability index was found to be 1.33.

In turn, `COc1ccc(C2CC(=O)C3=C(C2)NC(C)=C(C(=O)OC(C)C)C3c2cccc(Cl)c2)cc1OC` (stereo unspecified) gave a viability index of 0.838. To `Cc1nc2c(C)cccc2c(O)c1CC=C(Cl)Cl` belongs 0.759. Then `O=C(Cc1ccc(Cl)cc1)NNS(=O)(=O)c1ccc([N+](=O)[O-])cc1`, with 0.939.

`COCCNC(=O)c1ccc(NCCc2ccc(Cl)cc2)c(S(=O)(=O)Nc2cccc(C(F)(F)F)c2)c1` registered a viability index of 1. To `CCCc1ccc(C(=O)NC(=O)c2ccccc2O)cc1` belongs 1.05; to `Cc1cc(C(=O)Nc2cnn(Cc3ccc(Cl)cc3Cl)c2)no1`, 0.952; to `Cc1cccc(OCC(=O)Nc2cccc(NC(=O)COc3cccc(C)c3)n2)c1`, 0.926.

As to `CCOc1cccc(Nc2cc(C)nc3ncnn23)c1`, the viability index was 0.656. Then `CCCCC(CC)C(=O)N1CCN(C(CC)c2nc3ccccc3c(=O)n2C)CC1` (stereo unspecified), with 0.911.

Molecule `CCN1CCN(CCN2C(=O)C3C(C(=O)Nc4ccc(C(C)C)cc4)C4C=CC3(O4)C2C(=O)NC2CCCCC2)CC1` (stereo unspecified) came in with a viability index of 1.06. As to `CCN(CC)CCCN(Cc1cc2cc(OC)c(OC)cc2[nH]c1=O)C(=S)Nc1cccc(Cl)c1`, the viability index worked out at 0.882. For `CCN(CC)CCCN(Cc1cc2c(C)cc(C)cc2[nH]c1=O)C(=S)NCCCN(C)C`, the viability index amounted to 0.91. For the molecule `CCc1c(C)c(C#N)c2nc3ccccc3n2c1NCc1ccccc1`, the viability index was 0.521.

Take `Brc1ccc(Nc2nc3ccccc3nc2Nc2ccc(Br)cc2)cc1`: the viability index worked out at 0.645. To `COc1ccc(CN2CSC3=C(C#N)C(c4cccc(OC)c4)CC(=O)N3C2)cc1` (stereo unspecified) belongs 0.992; to `CC[n+]1c(C=CC=C2N(C)c3ccccc3C2(C)C)sc2ccccc21`, 0.307. Regarding `O=C(Nc1ccc(-c2nc3ccc(NC(=O)c4cccc([N+](=O)[O-])c4)cc3[nH]2)cc1)c1cccc([N+](=O)[O-])c1`, the viability index turned out to be 1.57. To `CC(C)c1nc(N2CCN(C(=O)Nc3ccccc3)CC2)c(C#N)c2c1COC(C)(C)C2` belongs 0.0954; to `COc1cc2c(N3CCOCC3)cc(O)c(CC(=O)Nc3ccccc3)c2cc1OC`, 0.8; to `COc1cccc(-c2ccc(O)c(CNC3CCCCCCC3)c2)n1`, 0.452. Then `CCOc1ccccc1C(=O)NC(Nc1sc2c(c1C(N)=O)CCCC2)(C(F)(F)F)C(F)(F)F`, with 0.904; and `CCOC(=O)c1c(-c2ccc3c(c2)OCO3)nc2cc(OC)ccc2c1O`, with 0.632; and `Cc1cccc(CCNc2cc(C)nc3nc(C)nn23)c1`, with 0.75. On to `Cc1cc2ncn(N=Cc3cccnc3)c2cc1C`, for which the viability index came out at 0.938. Then `CN(Cc1ccccc1)c1nc2c(c(=O)[nH]c(=O)n2C)n1CCCSc1ncccn1`, with 0.83; and `CCN1C(=Cc2sc3ccc(Cl)cc3[n+]2CC)C=Cc2cc(OC)ccc21`, with 0.846; and `O=C(O)CC(c1ccc2c(c1)OCO2)N1CCS(=O)(=O)CC1` (stereo unspecified), with 0.945. To `CCCNC(=O)c1ccc(OC2CCN(CC3CCCCC3)CC2)c(Cl)c1` belongs 0.708; to `CCCN(CCC)CCCNc1ccc(C(=O)Nc2cccc(OC)c2)cc1[N+](=O)[O-]`, 0.793. For `COc1ccc(C2CC(=O)C3=C(C2)NC(C)=C(C(=O)OC(C)C)C3c2ccc(Cl)cc2Cl)cc1OC` (stereo unspecified), the viability index was 0.328. As to `Cc1nc(-c2nc3c(s2)CN(C(=O)c2ccncc2)CC3)cs1`, the viability index came to 0.78. To `COc1ccc(Cn2nnnc2CN2CCc3ccccc3C2)cc1` belongs 0.768; to `COc1ccc([N+](=O)[O-])cc1-c1ccc(C=C(C#N)c2nn(CCO)c(N)c2C#N)o1`, 0.598.

On to `CCOC(=O)c1cccc(OC(=O)c2ccccc2)c1`, for which the viability index is 1.03. To `CCCOc1ncnc2c1sc1nc3c(cc12)COC(C)(C)C3` belongs 0.902. In the case of `COc1ccc(N=Nc2nc3ccc(Br)cc3n2C)cc1`, the viability index is 0.358. Then `CCOC(=O)c1[nH]nc(C(=O)c2ccccc2)c1-c1ccccc1`, with 1.27; and `O=C1C(=O)N(Cc2cccc3ccccc23)c2ccc(Br)cc21`, with 0.897. To `CCC(C)NC(=O)c1nn(-c2ccc(OC)cc2)c(=O)c2ccccc12` (stereo unspecified) belongs 0.871. Then `COC(=O)C1CN(Cc2ccccc2)CCC1=O` (stereo unspecified), with 0.872. `CC(C)(C)c1ccc(C(=O)Nc2ccc(NC(=O)c3ccc(-c4ccc([N+](=O)[O-])cc4)o3)cc2)cc1`: the viability index is 1.04. To `COCCOC(=O)C1=C(C)NC2=C(C(=O)CC(c3ccc(OC)c(OC)c3)C2)C1c1ccccc1Cl` (stereo unspecified) belongs 0.544. To `COc1cc(CN2CCC3(CC2)CC3C(=O)NCCc2ccccc2OC)ccc1O` (stereo unspecified) belongs 1.38; to `COC(=O)c1ccc(C2C3=C(O)CC(c4ccco4)CC3=Nc3ccccc3N2C(=O)c2ccccc2)cc1` (stereo unspecified), 0.62; to `CN1CCc2c(sc3c2C(=O)NC(c2ccc(O)cc2)N3)C1` (stereo unspecified), 0.753.

In turn, `CCC(C(=O)Nc1sccc1C#N)c1ccccc1` (stereo unspecified) yielded a viability index of 1.02. To `CCOC(=O)C1=C(C)NC2=C(C(=O)CC(c3ccc(OC)c(OC)c3)C2)C1c1ccc(Br)cc1` (stereo unspecified) belongs 0.367. To `O=C(Nc1ccc(SC(F)(F)F)cc1)Nc1cccnc1N1CCC(C(F)(F)F)CC1` belongs 1.02 ± 0.065; to `Cc1ccc(C)c(CN2C(=O)c3ccccc3S(=O)(=O)c3ccc(C(=O)NCCCN4CCCC(C)C4)cc32)c1` (stereo unspecified), 0.96. To `COc1cc(NCCCC(C)N)c2ncccc2c1` (stereo unspecified) belongs 0.627.

As to `COc1ccc(NC2=CC(=O)CC(c3ccccc3)C2)c(OC)c1` (stereo unspecified), the viability index was found to be 0.816. To `COc1ccc(S(=O)(=O)N=C2C=C(Nc3ccccc3OC)C(=O)c3ccccc32)cc1` belongs 0.0579; to `CCOC(=O)c1ccc(Nc2nc(N)c3cc(OC)c(OC)cc3n2)cc1`, 0.329.

For `NNC(=O)CNC(c1ccccc1)c1cc(Br)ccc1NC(=O)c1ccccc1Br` (stereo unspecified), the viability index was found to be 0.955. To `CCC(CC)CN1CCC(O)(c2ccc3oc(C(=O)Nc4ccc5c(c4)OCO5)cc3c2)CC1` belongs 0.779. To `COc1ccc(C2CC(=O)C3=C(C2)NC(C)=C(C(=O)OC(C)C)C3c2cccc(Cl)c2Cl)cc1OC` (stereo unspecified) belongs 0.425.

Consider `CN(C)CC(C)(C)CNCc1cc(-c2ccccc2)ccc1O`, for which the viability index came to 0.596. In turn, `Cc1ccc(NC(=O)c2cc(C(=O)c3cc(Cl)ccc3O)cn(-c3ccc(C)c(C)c3)c2=O)cc1C` displayed a viability index of 0.767. Regarding `Cc1ccc(Cn2c(C)c3cnn(CC(=O)O)c(=O)c3c2C)cc1`, the viability index was 1.51. With `CCCCn1c(=N)c(C(=O)NC(C)c2ccccc2)cc2c(=O)n3cccc(C)c3nc21` (stereo unspecified), the viability index came to 0.802. To `Cc1cc2nc(NC(=N)N)nc(C)c2cc1C` belongs 0.718; to `COC(=O)c1ccc(Nc2nc(NCc3ccco3)c3ccccc3n2)cc1`, 0.714. For the molecule `N#Cc1cn(-c2ccc(Cl)cc2)c(=O)n(Cc2c(Cl)cccc2Cl)c1=O`, the viability index worked out at 1.08. Then `Cc1ccc(S(=O)(=O)N=C(NS(=O)(=O)c2ccc(C)cc2)c2ccccc2)cc1`, with 0.943; and `CCN(CC)c1ccc(NCc2ccc3c(c2)OCO3)cc1`, with 1. Then `CCCCCn1c(C)[n+](CCCC)c2cc(Cl)c(Cl)cc21`, with 0.746; and `FC(F)(F)COc1ccc(OCC(F)(F)F)c(-c2ncnn2-c2ccccc2)c1`, with 0.755. Consider `CCCn1c(SCC(=O)Nc2ccccc2Cl)nc2c1c(=O)n(C)c(=O)n2C`, for which the viability index is 0.849.

The molecule `O=C(Nc1ccccc1)C1Cc2ccccc2CN1S(=O)(=O)c1ccc(F)cc1` (stereo unspecified) gave a viability index of 0.954.

Take `Cc1ccc(-c2cc3c(nn2)-c2ccccc2C3=O)cc1`: the viability index amounted to 0.65.

Consider `Cc1nc2c(-c3ccccc3)c(C)nn2c(C)c1CC(=O)NCc1ccccn1`, for which the viability index was found to be 1.24. For `CCN1CCN(C(=O)Nc2ccc(Cc3ccc(NC(=O)N4CCN(CC)CC4)cc3)cc2)CC1`, the viability index worked out at 0.819. Then `CN(C)CCNc1ncnc2c1[nH]c1ccc(Br)cc12`, with 0.776; and `COc1cccc(NC(=O)c2cccc3c(=O)c4c([nH]c23)CCCC4)c1`, with 0.94; and `CN1C=CC(=Cc2sc3ccccc3[n+]2C)C=C1`, with 0.788.
